# Assay results as given in PubChem BioAssay (Tox21).
# “And” between values parts separate entries of the source, which are not always exact repeats. Identical values can stand only once. This list was built around the results that the source calls inconclusive (neither active nor inactive); the mix of calls is not that of the screen. For some of these results: Potencies of inconclusive entries are doubtful fits and often do not repeat. The source made the active and inactive calls. Unless noted, calls come from the whole dose curve; as a rule, active = well fitted curve in the direction sought with a large enough effect in the repeat runs; inconclusive = weak or mixed curves; inactive = no such curve, though single readings can be large; an effect the other way counts as inactive or inconclusive.
# Tests used:
# [1] = molecular target: Aryl hydrocarbon receptor (Homo sapiens) (UniProt P35869); assay: qHTS assay to identify small molecule that activate the aryl hydrocarbon receptor (AhR) signaling pathway (AID 743085); note: potency is the fitted concentration of half-maximal effect; nearly all actives have a fitted effect of over 15% in size
# How it was run: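 Cell line HG2L7.5c1 (human hepatoma, 20× DRE-luc). Plated, 5 h 37C, compound/DMSO added, 24 h 37C. CellTiter-Fluor 30 min 37C → fluorescence; then ONE-Glo 30 min RT → luminescence.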
# [2] = molecular target: Peroxisome proliferator-activated receptor gamma (Homo sapiens) (UniProt P37231); assay: qHTS assay to identify small molecule antagonists of the peroxisome proliferator-activated receptor gamma (PPARg) signaling pathway (AID 743191; calls by dose curve; note: nearly all actives have a fitted effect of over 30% in size; note: potency is the fitted concentration of half-maximal effect; for ratio activity, negative = inhibition: % is set by controls: 0 for no effect and ±100 for the full control effect); details: HEK293H PPARg-UAS-bla, beta-lactamase ratio, antagonist, 17 h; ratio activity, negative = inhibition: at 62.6 µM (top of the series) unless noted
# How it was run: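 GeneBLAzer PPARg UAS-bla HEK293H cells carrying a UAS-driven beta-lactamase reporter were plated at 3000 cells/well, preincubated 5 h at 37C, then given compound for 17 h at 37C; LiveBLAzer B/G FRET substrate was read after 1 h at room temperature.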
# [3] = molecular target: Vitamin D3 receptor (Homo sapiens) (UniProt P11473); assay: qHTS assay to identify small molecule antagonists of the vitamin D receptor (VDR) signaling pathway (AID 743223; active = well fitted inhibition curve with a large enough effect in the signal ratio in the repeat runs, not every such curve was filed as active; inconclusive = weak or mixed curves, or effect the other way; inactive = no such curve, though single readings can be large or run the other way; the % refers to the signal ratio; note: potency is the fitted concentration of half-maximal effect; for activity change, negative = inhibition: % is set by controls: 0 for no effect and ±100 for the full control effect); details: VDR-UAS-bla HEK293T, beta-lactamase FRET ratio, 16 h; activity change, negative = inhibition: at 61 µM (top of the series) unless noted
# How it was run: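 Antagonist mode uses 1alpha,25-dihydroxyvitamin D3 at 3 nM final as stimulus. VDR-bla cells receive compounds in DMSO, incubate 16 h at 37C, then a beta-lactamase FRET substrate for 2 h at room temperature before fluorescence measurement.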
# [4] = qHTS assay to identify small molecule that activate the aryl hydrocarbon receptor (AhR) signaling pathway - cell viability counter screen (AID 743086); note: potency is the fitted concentration of half-maximal effect; nearly all actives have a fitted effect of over 45% in size
# How it was run: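 HepG2-AhR-luc (HG2L7.5c1) cells, 4000/well, were preincubated 5 h at 37C, exposed to compound in qHTS format for 24 hr at 37C, then given CellTiter-Fluor for 30 min; viability was read as fluorescence in the reporter wells.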
# [5] = molecular target: Peroxisome proliferator-activated receptor gamma (Homo sapiens) (UniProt P37231); assay: qHTS assay to identify small molecule agonists of the peroxisome proliferator-activated receptor gamma (PPARg) signaling pathway (AID 743094; active = well fitted activation curve with a large enough effect in the signal ratio in the repeat runs, not every such curve was filed as active; inconclusive = weak or mixed curves, or effect the other way; inactive = no such curve, though single readings can be large or run the other way; the % refers to the signal ratio; note: potency is the fitted concentration of half-maximal effect; for activation: % is set by controls: 0 for no effect and ±100 for the full control effect); details: HEK293H PPARg-UAS-bla, beta-lactamase FRET ratio, 17 h; activation: at 57 µM (top of the series) unless noted
# How it was run: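 Quantitative HTS agonist mode: stable HEK293H line with UAS-beta-lactamase reporter under PPARg control, 17 h compound exposure at 37C, fluorescence after 1 h FRET substrate loading at room temperature.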
# [6] = qHTS assay for small molecule agonists of the antioxidant response element (ARE) signaling pathway (AID 743202; active = well fitted activation curve with a large enough effect in the signal ratio in the repeat runs, not every such curve was filed as active; inconclusive = weak or mixed curves, or effect the other way; inactive = no such curve, though single readings can be large or run the other way; the % refers to the signal ratio; note: potency is the fitted concentration of half-maximal effect); details: HepG2 ARE-bla reporter, beta-lactamase FRET, 16 h; activation: at 73.3 µM (top of the series) unless noted
# How it was run: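 Read-out: LiveBLAzer B/G FRET substrate fluorescence after 2 h at room temperature, following 16 h compound treatment at 37 C of HepG2 cells carrying an ARE-driven beta-lactamase reporter.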
# [7] = qHTS assay for small molecule agonists of the antioxidant response element (ARE) signaling pathway - cell viability counter screen (AID 743203; calls by dose curve; note: potency is the fitted concentration of half-maximal effect; nearly all actives have a fitted effect of over 55% in size); details: ARE-bla HepG2 viability, CellTiter-Glo luminescence, 16 h; viability change, negative = cytotoxic: at 73.3 µM (top of the series)
# How it was run: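 Seeded at 2,000 cells/well, ARE-bla HepG2 cells were incubated 5 hrs before compound addition. After 16 hrs of treatment at 37C with 5% CO2, CellTiter-Glo reagent was added and luminescence read 30 min later.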
# [8] = qHTS assay to identify small molecule agonists of the peroxisome proliferator-activated receptor delta (PPARd) signaling pathway - cell viability counter screen (AID 743211); details: PPARd-bla HEK293H viability, CellTiter-Glo luminescence, 17 h; activity change, negative = cytotoxicity: at 62.6 µM (top of the series) unless noted; note: potency is the fitted concentration of half-maximal effect; nearly all actives have a fitted effect of over 55% in size
# How it was run: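 HEK293H PPARd-bla, 3000 cells/well; 5 h preincubation 37C/5% CO2; cpd in DMSO, 17 h 37C; B/G FRET substrate 2 h RT; CellTiter-Glo 30 min RT, luminescence.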
# [9] = qHTS assay to identify small molecule antagonists of the peroxisome proliferator-activated receptor delta (PPARd) signaling pathway - cell viability counter screen (AID 743213); details: PPARd-bla HEK293H viability, CellTiter-Glo luminescence, 17 h; viability change, negative = cytotoxic: at 62 µM (top of the series) unless noted; note: potency is the fitted concentration of half-maximal effect; nearly all actives have a fitted effect of over 50% in size
# How it was run: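 Cytotoxicity counter screen: CellTiter-Glo luminescence read 30 min after addition, in the same wells as the reporter assay. There, PPARd UAS-bla HEK293H cells (3000/well) were treated 17 h at 37 C with compound and 300 nM L165041.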
# [10] = qHTS assay to identify small molecule agonists of the farnesoid-X-receptor (FXR) signaling pathway - cell viability counter screen (AID 743218); details: FXR-bla HEK293T viability, CellTiter-Glo luminescence, 16 h; viability change, negative = cytotoxic: at 62.6 µM (top of the series) unless noted; note: potency is the fitted concentration of half-maximal effect; nearly all actives have a fitted effect of over 45% in size
# How it was run: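 Cytotoxicity counter-screen run in parallel, same wells: FXR-UAS-bla HEK 293T cells dosed 16 h at 37 C, viability read by CellTiter-Glo luminescence after 30 min at room temperature.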
# [11] = qHTS assay to identify small molecule antagonists of the peroxisome proliferator-activated receptor gamma (PPARg) signaling pathway - cell viability counter screen (AID 743194); details: PPARg-bla HEK293H viability, CellTiter-Glo luminescence, 17 h, co-treated with 50 nM rosiglitazone; activity change, negative = cytotoxicity: at 62.6 µM (top of the series) unless noted; note: potency is the fitted concentration of half-maximal effect; nearly all actives have a fitted effect of over 55% in size
# How it was run: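 PPARg-UAS-bla HEK293H cells were plated, rested 5 h at 37 C, then treated with compounds plus rosiglitazone (50 nM final) for 17 h at 37 C; viability was then read by CellTiter-Glo luminescence after 30 min at room temperature.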
# [12] = molecular target: Bile acid receptor (Homo sapiens) (UniProt Q96RI1); assay: qHTS assay to identify small molecule antagonists of the farnesoid-X-receptor (FXR) signaling pathway (AID 743217; active = well fitted inhibition curve with a large enough effect in the signal ratio in the repeat runs, not every such curve was filed as active; inconclusive = weak or mixed curves, or effect the other way; inactive = no such curve, though single readings can be large or run the other way; the % refers to the signal ratio; note: potency is the fitted concentration of half-maximal effect); details: HEK293T FXR-UAS-bla, beta-lactamase ratio, CDCA-stimulated, 16 h; activity change, negative = inhibition: at 62.6 µM (top of the series) unless noted
# How it was run: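 Antagonist mode against 50 uM (final) chenodeoxycholic acid stimulation in FXR-bla HEK 293T cells, 16 h at 37 °C. Inhibition detected as reduced beta-lactamase activity via LiveBLAzer B/G FRET fluorescence after 2 h at room temperature.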
# [13] = qHTS assay to identify small molecule antagonists of the farnesoid-X-receptor (FXR) signaling pathway - cell viability counter screen (AID 743221; active = well fitted cell-killing curve with a large enough effect in the repeat runs, not every such curve was filed as active; inconclusive = weak or mixed curves, or effect the other way; inactive = no such curve, though single readings can be large or run the other way; note: nearly all actives have a fitted effect of over 50% in size; note: potency is the fitted concentration of half-maximal effect); details: FXR-bla HEK293T viability, CellTiter-Glo luminescence, 16 h; activity change, negative = cytotoxicity: at 62.6 µM (top of the series) unless noted
# How it was run: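 Luminescence from CellTiter-Glo measures cytotoxicity in GeneBLAzer FXR-UAS-bla HEK 293T cells. Cells were exposed to compounds with 50 uM chenodeoxycholic acid (final) for 16 h at 37 C, in wells also used for the reporter readout.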
# [14] = qHTS assay to identify small molecule agonists of the vitamin D receptor (VDR) signaling pathway - cell viability counter screen (AID 743224); details: VDR-bla HEK293T viability, CellTiter-Glo luminescence, 16 h; activity change, negative = cytotoxicity: at 62.6 µM (top of the series); note: nearly all actives have a fitted effect of over 50% in size; note: potency is the fitted concentration of half-maximal effect
# How it was run: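 Viability is measured in the same wells as the VDR-bla reporter assay: after 16 h compound treatment and 2 h substrate loading, CellTiter-Glo is added and luminescence read 30 min later.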
# [15] = qHTS assay for small molecule activators of the heat shock response signaling pathway - cell viability counter screen (AID 743209); details: HSE-bla HeLa viability, CellTiter-Glo luminescence, 5 h; activity change, negative = cytotoxicity: at 62.6 µM (top of the series) unless noted; note: nearly all actives have a fitted effect of over 50% in size; note: potency is the fitted concentration of half-maximal effect
# How it was run: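 First, HSE-bla HeLa cells were seeded at 1500 cells/well and kept overnight at 37 C. Next, compounds were pinned in and incubated 5 h. After the FRET substrate step, CellTiter-Glo was added and luminescence read 30 min later.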
# [16] = molecular target: Peroxisome proliferator-activated receptor delta (Homo sapiens) (UniProt Q03181); assay: qHTS assay to identify small molecule agonists of the peroxisome proliferator-activated receptor delta (PPARd) signaling pathway (AID 743212; calls by dose curve; note: potency is the fitted concentration of half-maximal effect); details: HEK293H PPARd-UAS-bla, beta-lactamase FRET ratio, 17 h; activation: at 62.6 µM (top of the series) unless noted
# How it was run: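 GeneBLAzer PPARd UAS-bla HEK293H cells (beta-lactamase reporter under UAS control), plated and rested 5 h at 37 C, then exposed to compounds in DMSO at 37 C; LiveBLAzer B/G FRET substrate added, 2 h room temperature, fluorescence read.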
# [17] = molecular target: Peroxisome proliferator-activated receptor delta (Homo sapiens) (UniProt Q03181); assay: qHTS assay to identify small molecule antagonists of the peroxisome proliferator-activated receptor delta (PPARd) signaling pathway (AID 743215; active = well fitted inhibition curve with a large enough effect in the signal ratio in the repeat runs, not every such curve was filed as active; inconclusive = weak or mixed curves, or effect the other way; inactive = no such curve, though single readings can be large or run the other way; the % refers to the signal ratio;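 note: cells stimulated with agonist L165041 at 300 nM final during compound exposure; potency is the fitted concentration of half-maximal effect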); details: HEK293H PPARd-UAS-bla, beta-lactamase FRET ratio, antagonist, 17 h; ratio activity, negative = inhibition: at 62 µM (top of the series) unless noted
# How it was run: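 Inhibition of L165041-driven (300 nM final) PPARd signaling is scored in HEK293H UAS-bla cells. Exposure lasts 17 h at 37 C; beta-lactamase activity is then read by FRET substrate fluorescence after 2 h at room temperature.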
# [18] = molecular target: Vitamin D3 receptor (Homo sapiens) (UniProt P11473); assay: qHTS assay to identify small molecule agonists of the vitamin D receptor (VDR) signaling pathway (AID 743222; calls by dose curve; note: % is set by controls: 0 for no effect and ±100 for the full control effect); details: HEK293T VDR-UAS-bla, beta-lactamase FRET ratio, 16 h; activation: at 63.5 µM (top of the series) unless noted
# How it was run: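 Quantitative HTS agonist-mode screen: compounds in DMSO were pin-transferred onto VDR-bla cells and incubated 16 h at 37C, 5% CO2. Reporter activity was detected with LiveBLAzer B/G FRET substrate after 2 h at room temperature.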
# Tags give direction and shape of the fitted curve or compound fluorescence and quenching.
# Chain of UniProt P11473 (P11473 whole entry, looked up): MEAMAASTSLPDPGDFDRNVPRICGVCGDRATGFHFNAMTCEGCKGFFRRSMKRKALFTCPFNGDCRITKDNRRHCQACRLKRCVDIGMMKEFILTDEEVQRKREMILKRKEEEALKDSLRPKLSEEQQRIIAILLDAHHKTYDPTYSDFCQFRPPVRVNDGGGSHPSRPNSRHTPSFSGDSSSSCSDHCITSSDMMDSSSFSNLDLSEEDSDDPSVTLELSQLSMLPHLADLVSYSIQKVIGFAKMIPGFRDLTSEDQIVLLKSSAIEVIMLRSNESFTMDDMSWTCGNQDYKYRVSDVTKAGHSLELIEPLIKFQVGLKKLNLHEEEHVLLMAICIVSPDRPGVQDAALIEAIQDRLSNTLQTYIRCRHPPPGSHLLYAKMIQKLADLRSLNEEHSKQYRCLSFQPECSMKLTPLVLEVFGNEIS
# Chain of UniProt P37231 (P37231 whole entry, looked up): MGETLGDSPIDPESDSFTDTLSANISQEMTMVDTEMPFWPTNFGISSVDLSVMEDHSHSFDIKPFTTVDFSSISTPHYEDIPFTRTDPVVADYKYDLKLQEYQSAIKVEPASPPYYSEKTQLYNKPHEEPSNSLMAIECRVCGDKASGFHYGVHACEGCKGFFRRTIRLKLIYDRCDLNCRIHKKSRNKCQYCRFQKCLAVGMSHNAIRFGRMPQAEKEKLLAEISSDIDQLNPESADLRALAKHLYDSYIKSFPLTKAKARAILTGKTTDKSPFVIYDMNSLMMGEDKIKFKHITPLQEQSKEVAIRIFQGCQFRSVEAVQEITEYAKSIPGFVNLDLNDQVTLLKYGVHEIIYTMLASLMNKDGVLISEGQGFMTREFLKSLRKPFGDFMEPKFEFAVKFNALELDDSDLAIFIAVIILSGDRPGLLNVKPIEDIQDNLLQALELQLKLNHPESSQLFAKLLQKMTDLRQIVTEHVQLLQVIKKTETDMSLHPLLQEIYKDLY
# Chain of UniProt P35869 (P35869 whole entry, looked up): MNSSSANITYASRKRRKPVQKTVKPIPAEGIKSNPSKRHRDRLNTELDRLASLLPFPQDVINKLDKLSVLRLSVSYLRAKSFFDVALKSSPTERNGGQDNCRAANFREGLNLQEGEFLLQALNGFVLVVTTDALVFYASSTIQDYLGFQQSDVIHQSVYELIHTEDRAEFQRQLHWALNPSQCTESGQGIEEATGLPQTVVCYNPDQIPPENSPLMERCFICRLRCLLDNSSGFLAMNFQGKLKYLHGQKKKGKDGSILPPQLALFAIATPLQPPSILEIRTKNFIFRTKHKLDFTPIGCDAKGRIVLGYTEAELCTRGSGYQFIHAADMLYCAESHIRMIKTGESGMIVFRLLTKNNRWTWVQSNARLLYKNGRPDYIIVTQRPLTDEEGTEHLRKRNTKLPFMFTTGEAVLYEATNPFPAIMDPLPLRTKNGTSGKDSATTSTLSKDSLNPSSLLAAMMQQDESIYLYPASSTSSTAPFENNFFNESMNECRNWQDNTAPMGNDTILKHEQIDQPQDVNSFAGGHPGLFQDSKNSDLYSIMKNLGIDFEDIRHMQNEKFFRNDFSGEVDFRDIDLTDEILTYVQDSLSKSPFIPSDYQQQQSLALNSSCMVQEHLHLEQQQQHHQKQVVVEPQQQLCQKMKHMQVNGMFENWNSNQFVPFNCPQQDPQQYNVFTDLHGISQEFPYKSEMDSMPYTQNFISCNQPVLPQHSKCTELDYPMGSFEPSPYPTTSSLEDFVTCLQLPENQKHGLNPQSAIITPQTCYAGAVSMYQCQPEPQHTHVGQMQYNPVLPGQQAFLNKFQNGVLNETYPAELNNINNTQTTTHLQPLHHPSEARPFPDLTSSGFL
# Chain of UniProt Q96RI1 (Q96RI1 whole entry, looked up): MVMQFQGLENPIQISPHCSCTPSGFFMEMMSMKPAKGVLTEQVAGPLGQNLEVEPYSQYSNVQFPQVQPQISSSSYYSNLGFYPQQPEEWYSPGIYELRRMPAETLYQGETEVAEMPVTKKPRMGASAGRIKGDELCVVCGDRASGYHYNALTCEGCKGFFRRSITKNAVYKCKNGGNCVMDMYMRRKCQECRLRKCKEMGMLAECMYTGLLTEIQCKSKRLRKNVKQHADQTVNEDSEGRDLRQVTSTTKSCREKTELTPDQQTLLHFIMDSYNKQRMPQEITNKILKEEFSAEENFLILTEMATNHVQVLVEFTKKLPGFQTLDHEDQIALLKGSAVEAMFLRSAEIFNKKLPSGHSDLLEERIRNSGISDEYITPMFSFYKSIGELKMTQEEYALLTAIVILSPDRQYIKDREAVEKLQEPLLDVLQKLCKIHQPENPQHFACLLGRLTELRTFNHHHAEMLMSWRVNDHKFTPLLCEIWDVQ
# Chain of UniProt Q03181 (Q03181 whole entry, looked up): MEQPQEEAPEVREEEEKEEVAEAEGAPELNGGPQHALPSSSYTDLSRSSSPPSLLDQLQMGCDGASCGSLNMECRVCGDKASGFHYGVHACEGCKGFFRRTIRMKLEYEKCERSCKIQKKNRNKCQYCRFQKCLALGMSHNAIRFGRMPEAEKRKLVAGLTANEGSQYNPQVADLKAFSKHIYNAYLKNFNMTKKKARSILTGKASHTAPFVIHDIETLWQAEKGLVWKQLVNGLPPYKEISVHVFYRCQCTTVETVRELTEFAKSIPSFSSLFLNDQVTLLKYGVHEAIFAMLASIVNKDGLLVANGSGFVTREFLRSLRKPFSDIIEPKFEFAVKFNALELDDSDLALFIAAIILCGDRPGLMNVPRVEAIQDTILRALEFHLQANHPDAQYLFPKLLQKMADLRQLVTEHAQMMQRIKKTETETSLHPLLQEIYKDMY
smiles,measurement,setting,value
COc1cc2[nH]c(=O)[nH]c(=O)c2cc1OC,Potency,[1],"inconclusive: 10.1 µM [activator, partial curve, poor fit]"
same,"ratio activity, negative = inhibition",[2],inconclusive: 2.17%
same,Potency,[3],inactive
OCCOCCN1CCN(C(c2ccccc2)c2ccc(Cl)cc2)CC1 (configuration not stated),Potency,[4],"inconclusive: 29.8 µM [falling, partial curve] and inconclusive: 26.9 µM [falling, partial curve]"
same,Potency,[5],inconclusive: 4.31 µM
same,Potency,[2],"inconclusive: 11.9 µM [inhibitor, partial curve, poor fit]"
same,"ratio activity, negative = inhibition",[2],inconclusive: -24.3%
same,Potency,[6],"inconclusive: 9.56 µM [falling, full curve]"
same,Potency,[7],"inconclusive: 67.7 µM [cytotoxic, single point]"
same,Potency,[8],"inconclusive: 43.1 µM [cytotoxic, partial curve]"
same,Potency,[9],"active: 43.1 µM and inconclusive: 33.5 µM [cytotoxic, single point]"
same,Potency,[10],"inconclusive: 34.2 µM [cytotoxic, partial curve, poor fit]"
same,"activity change, negative = inhibition",[3],inconclusive: -13.9%
CN(Cc1cnc2nc(N)nc(N)c2n1)c1ccc(C(=O)N[C@@H](CCC(=O)O)C(=O)O)cc1,Potency,[4],"inconclusive: 13.7 µM [falling, full curve]"
same,Potency,[5],"inconclusive: 0.848 µM [rising, full curve, poor fit]"
same,activation,[5],inconclusive: 0.47%
same,Potency,[2],inconclusive: 0.75 µM [full curve]
same,"ratio activity, negative = inhibition",[2],inconclusive: -19.4%
same,Potency,[11],"inconclusive: 1.4 nM [cytotoxic, full curve, poor fit] and inconclusive: 298 nM [cytotoxic, full curve]"
same,Potency,[6],active: 9.7 nM and active: 59.6 nM
same,Potency,[7],active: 6.1 nM and active: 47.3 nM
same,Potency,[8],"inconclusive: 38.9 nM [cytotoxic, full curve] and inconclusive: 376 nM [cytotoxic, full curve]"
same,Potency,[9],"inconclusive: 34.7 nM [cytotoxic, full curve] and inconclusive: 266 nM [cytotoxic, full curve]"
same,Potency,[12],"inconclusive: 97.7 nM [inhibitor, full curve] and active: 376 nM"
same,Potency,[10],"inconclusive: 38.9 nM [cytotoxic, full curve] and inconclusive: 106 nM [cytotoxic, full curve]"
same,Potency,[13],"inconclusive: 24.5 nM [falling, full curve] and inconclusive: 298 nM [falling, full curve]"
same,Potency,[14],active: 30.9 nM and active: 188 nM
CCC(C)COC(C)=O (configuration not stated),Potency,[1],"inconclusive: 13.7 µM [activator, full curve, poor fit]"
same,Potency,[6],inactive
same,Potency,[15],"inconclusive: 1.74 µM [rising, full curve, poor fit]"
same,Potency,[12],inactive
CN1CCCC(CC2c3ccccc3Sc3ccccc32)C1 (configuration not stated),Potency,[4],"inconclusive: 12.7 µM [falling, single point]"
same,Potency,[5],"inconclusive: 2.56 µM [inhibitor, partial curve, poor fit]"
same,Potency,[2],active: 10.6 µM
same,Potency,[11],active: 16.8 µM
same,Potency,[6],"inconclusive: 13.3 µM [falling, partial curve]"
same,Potency,[7],"inconclusive: 33.5 µM [cytotoxic, single point]"
same,Potency,[8],active: 29.8 µM
same,Potency,[16],inconclusive: 23.7 µM
same,Potency,[9],active: 26.6 µM
same,Potency,[17],"inconclusive: 33.5 µM [inhibitor, single point]"
same,Potency,[12],"inconclusive: 29.8 µM [rising, partial curve, poor fit]"
same,Potency,[10],active: 13.3 µM
same,Potency,[13],"inconclusive: 33.5 µM [falling, single point]"
same,activation,[18],inconclusive: -46.8%
same,Potency,[3],"inconclusive: 37.9 µM [rising, partial curve, poor fit]"
same,Potency,[14],active: 26.6 µM
C=CN1CCCC1=O,Potency,[1],"inconclusive: 76 µM [activator, partial curve, poor fit]"
same,Potency,[6],inactive
same,Potency,[15],inactive
same,Potency,[13],inactive
same,Potency,[14],inactive
